Assay results taken from PubChem BioAssay AID1508623 (National Center for Advancing Translational Sciences (NCATS), 2021).
Out of some 48,000 compounds screened, about 450 (0.94%) were called active. Not shown: some 19% with an inconclusive outcome. The call rests on the fitted dose curve; in most records, active means well fitted inhibition curve with a large enough effect; inconclusive means small, poorly fitted or top-dose-only effect; inactive means no such curve, though single readings can be large or run the other way. The list shows a part of the results.

test: Primary qHTS for Identification of Small Molecule Inhibitors of Huntingtin Promoter Activity; conditions: HEK293 HTT promoter firefly luciferase reporter (activity 0% = vehicle and -100% = no light), 24 h; series mostly up to 57.5 µM; activity change, negative = inhibition: at the top concentration; further: nearly all actives have a fitted effect of over 50% in size
Outline: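 Quantitative HTS used concentration series of up to 57.5 uM final on HEK293 luciferase reporter cells, 24 h at 37 degrees C. Readout was Dual-Glo firefly luminescence.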

With `COC(=O)c1ccccc1NC(=O)Cn1c(=O)cc(-c2ccccc2)c2c(C)nn(C)c21` as the compound, how does the “activity change, negative = inhibition” value read?
The value was inactive: -22.9%.

Which “activity change, negative = inhibition” value does the source give for `CCOC(=O)c1sc2ncn(CC(=O)Nc3cc(C)cc(C)c3)c(=O)c2c1C` here?
The value was inactive: -12.6%.

With `O=C(NCc1ccccc1F)c1cc2ccccn2n1` as the compound, how does the “activity change, negative = inhibition” value read?
Its value is inactive: 54%.

With `Cc1ccc2oc(=O)c3cc(C(=O)NCc4ccc(Cl)cc4)sc3c2c1` as the compound, how does the “activity change, negative = inhibition” value read?
The value was inactive: -7.95%.

Which “activity change, negative = inhibition” value does the source give for `COc1ccc(CNC(=O)c2ccc(NC(=O)N3CCCCc4ccccc43)cc2)c(OC)c1` here?
Its value is inactive: -8.28%.

Which “activity change, negative = inhibition” value does the source give for `Cc1cccc(-c2nc(C)c(CCNC(=O)C(=O)Nc3c(C)cc(C)cc3C)s2)c1` here?
The value was inactive: -9.61%.

With `Cc1cc(SCC(=O)NCc2ccccc2Cl)nc(=O)[nH]1` as the compound, how does the “activity change, negative = inhibition” value read?
Its value is inactive: 2.48%.

With `COc1ccc(-c2csc3nc(-c4ccc(F)cc4)oc(=O)c23)cc1OC` as the compound, how does the “activity change, negative = inhibition” value read?
The value was inactive: 0.851%.

Which “activity change, negative = inhibition” value does the source give for `Cc1ccc(-c2noc(CSc3nnc(C)n3-c3ccc(F)cc3)n2)cc1` here?
Its value is inactive: -23.5%.

For `Cc1cc(O)c(C(c2ccccc2)N2CCN(c3ccccc3F)CC2)c(=O)n1Cc1ccco1` (stereo unspecified), which “activity change, negative = inhibition” value is on record?
Its value is inactive: -5.4%.

With `CCC(=O)N1CCc2cc(Br)cc(S(=O)(=O)CCC(=O)NCc3ccc(C)cc3)c21` as the compound, how does the “activity change, negative = inhibition” value read?
Its value is inactive: -8.81%.

With `COc1ccc(CNC(=O)C(=O)Nc2ccccc2OC)cc1` as the compound, how does the activity change, negative = inhibition read?
Its activity change, negative = inhibition is inactive: -24.8% [at 11.5 µM].

For `COc1cc(NC(=O)CN2C(=O)C(c3ccc(C)cc3)=NC23CCCCCC3)cc(OC)c1`, which “activity change, negative = inhibition” value is on record?
The value was inactive: -26.9%.

Which “activity change, negative = inhibition” value does the source give for `CC(=O)Nc1c(C)nn(-c2ccccc2)c1N1CCC(C(=O)Nc2ccc(Cl)cc2C)CC1` here?
Its value is inactive: -5.46%.

Which “activity change, negative = inhibition” value does the source give for `O=C(c1ccccc1)c1ccc2n1CCC2C(=O)O` (stereo unspecified) here?
The value was inactive: 34.8%.

With `COc1ccc(N2CCN(C(=O)CCc3nnc4n(C)c(=O)c5sccc5n34)CC2)cc1` as the compound, how does the “activity change, negative = inhibition” value read?
The value was inactive: -1.86%.

With `COc1c(N2CCNC(C)C2)c(F)cc2c(=O)c(C(=O)O)cn(C3CC3)c12` (stereo unspecified) as the compound, how does the activity change, negative = inhibition read?
The activity change, negative = inhibition was “inactive”.

With `CCCC(=O)Nc1nc2c(s1)CC(C(C)(C)C)CC2` (stereo unspecified) as the compound, how does the “activity change, negative = inhibition” value read?
The value was inactive: 4.69%.

With `COc1ccc(-n2c(=O)c3ccc(C(=O)NCc4ccc(C)cc4)cc3n(Cc3ccc(F)cc3Cl)c2=O)cc1` as the compound, how does the “activity change, negative = inhibition” value read?
Its value is inactive: -8.52%.

Which “activity change, negative = inhibition” value does the source give for `CC1(C)N=C(c2ccc(F)cc2)C(=O)N1CC(=O)Nc1ccccc1Cl` here?
Its value is inactive: -17.6%.

For `Cc1ccc(Cn2c3ccccc3c3cnn(CC(=O)N4CCCCCC4)c(=O)c32)cc1`, which “activity change, negative = inhibition” value is on record?
Its value is inactive: -29.4%.

For `COc1ccc(-n2nc3c(c2NC(=O)C(=O)NCc2ccccc2)CSC3)cc1`, which “activity change, negative = inhibition” value is on record?
Its value is inactive: -25.5%.

For `COC(=O)c1cc2oc(C)cc2n1CC(=O)Nc1ccc(OC)c(OC)c1`, which “activity change, negative = inhibition” value is on record?
Its value is inactive: -11.4%.

For `CCOc1ccc(-n2c(=O)c3c(C)c(C)sc3n(Cc3c(F)cccc3Cl)c2=O)cc1`, which “activity change, negative = inhibition” value is on record?
Its value is inactive: -5.23%.

For `COc1ccc(N2C(=O)CS(=O)(=O)C23C(=O)N(Cc2ccccc2)c2ccccc23)cc1` (stereo unspecified), which “activity change, negative = inhibition” value is on record?
The value was inactive: -28.6%.

Which “activity change, negative = inhibition” value does the source give for `CCN1CCN(c2cc(C)c3cc(NC(=O)c4cc(OC)c(OC)c(OC)c4)ccc3n2)CC1` here?
Its value is inactive: 13.6%.
